In all, about 360,000 compounds went through this assay and about 7,500 (2.1%) were called active. The shares of active, inactive and inconclusive entries below differ from those in the screen. Calls follow the shape of the dose curve; as a rule, active = well fitted cell-killing curve with a large enough effect; inconclusive = small, poorly fitted or top-dose-only effect, or effect the other way, or another doubt; inactive = no such curve, though single readings can be large or run the other way. Potencies of inconclusive entries are left out as doubtful fits.
Assay: qHTS for induction of synthetic lethality in tumor cells producing 2HG: qHTS for the HT-1080-IDH1KD cell line;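 as to activity, negative = toxicity: 0% = DMSO wells and -100% = cell-free medium wells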
Settings: HT-1080 IDH1 knockdown viability, ATP luminescence, 48 h; activity, negative = toxicity: at 46.1 µM (top of the series) unless noted
How it was run: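 Knockdown cells (IDH1KD HT-1080) received compounds 2 h after plating at 750 cells/well and were kept 48 h at 37 °C in 5% FBS RPMI. A CellTiter-Glo luminescence read gave % activity for curve fitting.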
Potency is read from the fitted curve at half-maximal effect; tags tell the direction and shape of the fitted curve.

Compound | Potency | activity, negative = toxicity
O=C(Nc1ccn(Cc2ccccc2F)n1)c1ccc(COc2ccc(Br)cc2)cc1 | inconclusive [cytotoxic, partial curve] | 
Cc1cc(-c2n[nH]c(=S)o2)c(C)n1-c1ccccc1 | inconclusive [cytotoxic, single point] | 
COc1cc(/C=N\NC(=O)CN2CCOCC2)ccc1OCC(=O)Nc1ccc(C)c(C)c1 |  | inactive: 4.44%
Cc1ccc(NS(=O)(=O)c2cc(Br)cnc2N)cc1C | inconclusive [cytotoxic, single point] | 
O=C(c1ccco1)N1CCC(c2ccccc2)C1 (stereo unspecified) | inconclusive [rising, single point] | 
CC(C)NC(=O)C1(C)CCCCN1Cc1ccc(OCc2ccccc2)cc1 (stereo unspecified) | inconclusive [cytotoxic, single point] | 
O=C(CCc1ccc(O)cc1)NN=Cc1cc(Br)ccc1O | active: 16.4 µM | 
NCCC1CN(C(=O)OCc2ccccc2)c2ccccc21 (stereo unspecified) | inconclusive [cytotoxic, single point] | 
O=S(=O)(c1ccc(Cl)c(C(F)(F)F)c1)N1CCN(CC(O)COc2ccccc2F)CC1 (stereo unspecified) | inconclusive [cytotoxic, single point] | 
CCCCNc1c(-c2ccc(SC(C)CC)cc2)nc2cnccn12 (stereo unspecified) | inconclusive [cytotoxic, single point] | 
CC(C)CN=c1cc(-c2ccccc2)oc2ccc(Cl)cc12 | inconclusive [cytotoxic, single point] | 
CC(C(O)c1ccc(O)cc1)N1CCC(Cc2ccccc2)CC1 (stereo unspecified) | inconclusive [cytotoxic, single point] | 
COc1ccc(NC(=O)C2Cc3c(-c4ccccc4)ccnc3O2)cc1OC (stereo unspecified) | inconclusive [cytotoxic, full curve] | 
N#Cc1ccc(CN2CCN(C(=O)C3CC(=O)N(c4ccc5c(c4)OCCO5)C3)CC2)cc1 (stereo unspecified) |  | inactive: 2.51%
CCOC(=O)c1sc(-c2ccc(Br)cc2)cc1N | inconclusive [cytotoxic, single point] | 
Cn1ncc(Cl)c1C(=O)NCc1cc(C(C)(C)C)n[nH]1 | inconclusive [cytotoxic, partial curve, poor fit] | 
Cc1cc(C)cc(N(CC(=O)NC2CCCCC2)C(=O)c2ccc(C)s2)c1 | inconclusive [cytotoxic, single point] | 
NC(=O)c1sc2nc(-c3ccco3)ccc2c1N |  | inactive: 13.2%
CCn1c2ccccc2c2cc(/C=N/NC(=O)c3ccc(O)cc3)ccc21 | inconclusive [cytotoxic, single point] | 
COc1cc2c(cc1OC)CN(C(=O)CCCOc1ccc(Cl)cc1Cl)CC2 | inconclusive [cytotoxic, single point] | 
Nc1cccn2c(-c3ccc(Cl)cc3)cnc12 |  | inactive: -0.38%
Cc1nnc(NC(=O)CSc2nnc(CC(=O)Nc3ccccc3F)n2C)s1 |  | inactive: 5.98%
N=c1n(CCO)c2ccccc2n1CCOc1ccc(Cl)cc1Cl | inconclusive [cytotoxic, single point] | 
O=C(NCCc1nc2ccccc2[nH]1)/C(=C/c1ccc2c(c1)OCO2)NC(=O)c1ccccc1Cl |  | inactive: 5.89%

Compound | Potency | activity, negative = toxicity
COc1ccc(-c2c3c(nc4sc(C(=O)Nc5cc(C)on5)c(N)c24)CCC3)cc1 | inconclusive [rising, partial curve, poor fit] | 
CN(C)CCN(Cc1ccco1)c1ccccn1 |  | inactive: 19.4%
CN(c1cccc(NC(=O)c2ccc(C(C)(C)C)cc2)c1)S(C)(=O)=O | inconclusive [cytotoxic, partial curve] | 
CCOC(=O)C1=C(C)NC2=C(C(=O)CC(c3cccs3)C2)C1c1cccs1 (stereo unspecified) | active: 14.6 µM | 
COc1ccc(-c2nnc(Nc3nc4c(OC)cccc4s3)o2)cc1 | inconclusive [cytotoxic, partial curve] | 
Cc1ccc2c(c1)[C@H]1[C@H](CO2)[C@H](c2ccccc2)[C@]2(C)C(=O)Nc3cc(F)c(F)cc3C(=O)N12 | inconclusive [cytotoxic, single point] | 
CCOc1ccc(CCN2C(=O)C(=O)N([C@@H](CC(C)C)CN3CCC[C@H]3CN3C(=O)C(=O)NC[C@@H]3CC(C)C)C[C@@H]2Cc2ccc(O)cc2)cc1 | inconclusive [cytotoxic, single point] | 
Cc1ccc(S(=O)(=O)NC(C)(C)CN2CCC(Cc3ccccc3)CC2)cc1 | inconclusive [cytotoxic, single point] | 
Cc1ccc(C(=O)Nc2ccccc2-c2ccccc2)cc1S(=O)(=O)Nc1ccccc1 | inconclusive [cytotoxic, single point] | 
NNC(=O)c1[nH]c2ccc(Cl)cc2c1-c1ccccc1 | inconclusive [cytotoxic, partial curve] | 
CC(=O)Nc1ccc(CNc2nc(NCCN(C)C)nc3cc(-c4ccccc4)sc23)cc1 | active: 20.6 µM | 
Cc1ccccc1C(=O)N1CCC(C(=O)Nc2ccc(C(C)C)cc2)CC1 |  | inactive: -12.7%
CCCCc1nc2cc(C(=O)N(C)C3CCOCC3)ccc2o1 |  | inactive: 9.2%
Cc1cc(N2CCN(C)CC2)ccc1NC(=O)c1c2c(nc3ccccc13)CCN(Cc1ccccc1)C2 | active: 4.61 µM | 
CCc1nnc(NC(=O)CSc2nccn2-c2cccc(C)c2C)s1 | inconclusive [cytotoxic, single point] | 
CCCCCCN(C(=O)CCl)c1ccccc1 | inconclusive [cytotoxic, single point] | 
CC(=NNC(=S)N1CCN(c2ccccn2)CC1)c1ccccn1 | inconclusive [cytotoxic, single point] | 
CCN1CCN(c2cc(C(C)(C)C)nc3c(-c4ccccc4)c(C)nn23)CC1 | active: 12.6 µM | 
CC(=O)Nc1cccc(-c2ccnc3c2CC(C(=O)NCc2cccnc2)O3)c1 (stereo unspecified) | inconclusive [cytotoxic, single point] | 
CSc1ccc(/C=N\NC(=O)COc2ccc(Cl)cc2Br)cc1 | inconclusive [cytotoxic, single point] | 
O=[N+]([O-])c1ccc2nc(NN=Cc3ccc(O)cc3)sc2c1 | active: 29.1 µM | 
Nc1ccccc1C(=O)N1CCc2ccccc21 |  | inactive: 4.02%
C[C@@H]1CN([C@H](C)CO)C(=O)c2c(c3ccccc3n2C)-c2ccccc2CO[C@H]1CN(C)Cc1ccccc1 | inconclusive [cytotoxic, single point] | 
COc1cccc(/C=C2\SC(=O)N(CCC(=O)NNC(=O)c3cccc(Cl)c3)C2=O)c1 | inconclusive [cytotoxic, single point] | 

Compound | Potency | activity, negative = toxicity
O=C(Nc1nnc(C2CC2)s1)c1ccccn1 | active: 5.01 µM | 
CC(C)CNc1nc2c(c(=O)n(C)c(=O)n2C)n1Cc1cccc(Br)c1 |  | inactive: -11.1%
COc1ccc(NS(=O)(=O)c2cccc(C(=O)NCC(c3ccc(OC)cc3)N3CCCC3)c2)cc1 (stereo unspecified) | inconclusive [cytotoxic, partial curve] | 
CCCNC(=O)C1(C)CCCN(Cc2cccc(C#N)c2)C1 (stereo unspecified) | inconclusive [rising, single point] | 
O=C(NCc1ccccc1)c1ccc(CS(=O)Cc2ccc(Cl)cc2)o1 (stereo unspecified) |  | inactive: -0.747%
COCOc1cc(O)c(C(=O)/C=C/c2ccccc2)c(OCOC)c1 | inconclusive [cytotoxic, single point] | 
CC1CCN(C(=O)CCc2ccc(S(=O)(=O)NC(C)(C)C)cc2)CC1 | inconclusive [rising, single point] | 
Oc1cccc(/C=N/c2c(-c3ccco3)nc3ccccn23)c1 | inconclusive [cytotoxic, single point] | 
Cc1cccc(C(=O)OCC(=O)N(CC(C)C)c2c(N)n(Cc3ccccc3)c(=O)[nH]c2=O)c1C |  | inactive: -0.0524%
CCN(CC)c1ccc(/C=N/NC(=O)c2c(Cl)cnn2C)c(O)c1 | inconclusive [cytotoxic, full curve] | 
CCOC1=C2[C@H]([C@H]3C(=O)N(c4ccccc4)C(=O)[C@H]3C1)[C@@H](c1ccccc1)N(S(=O)(=O)c1ccc(C)cc1)[C@H]2c1ccccc1 | inconclusive [rising, partial curve] | 
O=C(Cc1cccs1)Nc1cc(S(=O)(=O)N2CCCCC2)ccc1Cl |  | inactive: -5.73%
COc1cc(OC)cc(C(=O)N2CCN(C(=O)c3cccs3)CC2)c1 |  | inactive: -10.6%
CC(=O)N1c2ccc(S(=O)(=O)N3CCCCC3)cc2CC1C(=O)Nc1ccc(F)cc1C (stereo unspecified) |  | inactive: -8.86%
CN(CC(=O)Nc1c(Cl)cccc1Cl)C(=O)c1ccccc1-c1nc2ccccc2s1 |  | inactive: -10%
COc1ccc(CN(C)CCCn2cnc(C(=O)Nc3ccc(C)c(C)c3)n2)cc1OC |  | inactive: -3.9%
COC(=O)c1cc(Cl)c(NC(=O)c2cc(OC)c(OC)c(OC)c2)cc1OC | inconclusive [cytotoxic, single point] | 
CCOC(=O)c1c(CC(C)C)csc1/N=C/C1C(=O)CCCC1=O | inconclusive [cytotoxic, single point] | 
COc1ccc(/C=C2\SC(=S)N(CCCC(=O)N3CCN(C)CC3)C2=O)cc1OC |  | inactive: 0.192%
COC(=O)N/N=C(\C)c1ccccc1OC(F)F |  | inactive: 4.21%
CC(C)OC(=O)Nc1ccc2c(c1)N(C(=O)N1CCN(C)CC1)c1ccccc1CC2 | active: 23.1 µM | 
COc1ccc(OC)c(NC(=O)CCCc2ccccc2)c1 |  | inactive: 8.58%
CCN1CCN(CCCOc2ccccc2-c2ccccc2)CC1 |  | inactive: -17.2%

From PubChem BioAssay AID686971 (National Center for Advancing Translational Sciences (NCATS), 2013)
